Test results from PubChem BioAssay AID1240 (Sanford-Burnham Center for Chemical Genomics, 2008).
Screen size: about 50,000 compounds; about 800 (1.6%) showed an effect of 50% or more. The list shows a part of the results.

What follows are compounds tested against Bcl-2-like protein 10 (Homo sapiens) (UniProt Q9HD36) (assay: TR3 peptide-Bcl-B binding displacers, biochemical primary FP assay, phenotype converters (AID 1240;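 further: 0% = Bcl-B with tracer peptide and DMSO and 100% = tracer peptide lacking Bcl-B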)). Details: GST-Bcl-B / FITC-TR3 peptide fluorescence polarization; stronger effect = higher value; compound at 3.75 mg/L.
Chain of UniProt Q9HD36 (Q9HD36 whole entry, looked up): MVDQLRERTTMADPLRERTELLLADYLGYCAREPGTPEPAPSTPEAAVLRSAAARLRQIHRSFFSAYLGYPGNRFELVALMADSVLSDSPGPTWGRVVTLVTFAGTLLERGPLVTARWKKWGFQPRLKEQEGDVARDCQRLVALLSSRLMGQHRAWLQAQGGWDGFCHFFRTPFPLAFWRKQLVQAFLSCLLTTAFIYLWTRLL

| SMILES | displacement [%] |
| --- | --- |
| O=[N+]([O-])c1ccccc1CN1CCN(Cc2cc(Br)ccc2O)CC1 | 7.1 |
| CC(=O)NNC(=O)c1ccccc1[N+](=O)[O-] | 0.3 |
| Cc1ccc(C(=O)Nc2c(C(C)C)cccc2C(C)C)cc1[N+](=O)[O-] | -0.7 |
| CCC(Oc1ccccc1)C(=O)Nc1cc([N+](=O)[O-])ccc1C (stereo not drawn) | 2.1 |
| CCOC(=O)c1c(-c2ccc(C)cc2)csc1NC(=O)CCCC(=O)O | 6.1 |
| CC(C)COc1ccc(C(=O)Nc2ccc([N+](=O)[O-])cc2Cl)cc1 | -9.1 |
| Cc1cc(C)c2c(c1)=C(c1sc(=S)[nH]c1O)C(=O)N=2 | 15 |
| CC(C)(C)NC(=O)c1cc(NC(=O)Cc2ccccc2)cc(NC(=O)Cc2ccccc2)c1 | -2.2 |
| Cc1c(OCC(=O)OC(C)(C)C)ccc2c(-c3ccccc3)cc(=O)oc12 | 10.7 |
| CC(C)OP(=O)(OC(C)C)C(Nc1ccc(Br)cc1)c1ccc(O)cc1 (stereo not drawn) | -13.8 |
| CCN(CC)c1ccc(N2C(=O)/C(=C/c3ccc(OC)cc3)SC2=S)cc1 | -13.1 |
| CCc1cc(=O)oc2cc(OC)ccc12 | -3.9 |
| CC1=CC(C)(C)N(C(=S)NC(=O)c2ccccc2)c2ccccc21 | 5.2 |
| Cc1ccc(NC(=O)C2CC(=O)N(c3cc(C)ccc3C)C2)cc1 (stereo not drawn) | -9.3 |
| COc1ccc(-c2cc(-c3ccc(Cl)cc3)c(C#N)c(N)n2)cc1 | 6.4 |
| C=CCN1C(=O)/C(=C\c2cn(CCOc3cccc(OC)c3)c3ccccc23)SC1=S | 91.7 |
| O=C(O)C1C2CCC(C2)C1C(=O)Nc1nc(-c2ccc(F)cc2F)cs1 (stereo not drawn) | 0.3 |
| COc1ccc(NC(=O)c2cc([N+](=O)[O-])ccc2Cl)c(OC)c1 | 15.9 |
| CCc1cc2c(=O)c(-c3nc4ccccc4s3)coc2c(CN2CCOCC2)c1O | 1 |
| O=C(c1cc(Cl)ccc1Cl)n1nnc2ccccc21 | 11.9 |
| O=[N+]([O-])c1ccccc1S(=O)(=O)Nc1ccc(Cl)c(C(F)(F)F)c1 | 4.1 |
| COc1ccc2c(=O)c(Oc3ccc(C(C)(C)C)cc3)coc2c1 | 11.4 |
| FC(F)(F)c1ccccc1CN1CCN(Cc2ccncc2)CC1 | -6 |

| SMILES | displacement [%] |
| --- | --- |
| CCOc1cc(C=O)ccc1OCc1ccccc1 | 11.6 |
| O=S1(=O)CCC(N2CCCCC2)C1 (stereo not drawn) | 3.2 |
| CCc1cc2c(N3CCN(Cc4ccc(Cl)cc4Cl)CC3)ncnc2s1 | 3.8 |
| COc1ccc(C(=O)NNC(=O)c2ccc(OC)cc2OC)cc1 | -5 |
| Cc1cc(C)nc(NS(=O)(=O)c2ccc(NC(=O)COc3ccc4ccccc4c3)cc2)n1 | 10.9 |
| Cn1c2ccccc2c2cc(C3Nc4ccccc4C(=O)N3Cc3ccco3)ccc21 (stereo not drawn) | 10.3 |
| COC(=O)c1sc(NC(=O)C2CCCCC2)c(C#N)c1C | -3 |
| COc1cc(/C=N\NC(=O)c2ccc(Br)cc2)ccc1OC(=O)c1cccc2ccccc12 | 5.3 |
| Cc1ccc(/C=C2\NC(=O)c3ccccc3C2=O)cc1 | 18.4 |
| CCOc1ccccc1OCCCCN1CCCCC1 | 7 |
| Cc1cccc(C(=O)Nc2sc3c(c2C(=O)O)CCC3)c1 | -3.6 |
| C/C(=N\N=C1\NC(=O)C(CC(=O)Nc2ccc(Cl)cc2Cl)S1)c1ccc(F)cc1 (stereo not drawn) | 10.5 |
| COc1ccc(NC(=O)CN(c2cccc([N+](=O)[O-])c2)S(=O)(=O)c2ccccc2)c(OC)c1 | 11.6 |
| CCOc1ccc(C(=O)Nc2ccc(O)c(-c3nc4ccccc4s3)c2)cc1Br | 12.2 |
| Cc1ccc(CNC(=O)C(=O)Nc2ccc(F)cc2)cc1 | -5.3 |
| Cc1cccc2c1nc1s/c(=C\c3cc4c(cc3Cl)OCO4)c(=O)n12 | 46 |
| O=C(O)CCN1C(=O)/C(=C\C(Cl)=C/c2ccc([N+](=O)[O-])cc2)SC1=S | 14.6 |
| Cc1nnc(SCC(=O)Nc2ccccc2[N+](=O)[O-])[nH]c1=O | 16.4 |
| O=c1nc2s/c(=C\c3cn(-c4ccccc4)nc3-c3cccc([N+](=O)[O-])c3)c(=O)n2nc1Cc1ccccc1 | 47.2 |
| O=S(=O)(c1ccc(-c2csc(Nc3ccc(F)cc3)n2)cc1)N1CCOCC1 | 11.5 |
| CC1(C)C(=O)N(Cc2ccccc2)c2ccccc2N1C(=O)c1ccc(Cl)cc1 | 3 |
| CC(C)c1ccc(N2C(=O)NC(=O)/C(=C/c3ccc(O)c(Br)c3)C2=O)cc1 | -17.8 |
| COC(=O)c1ccc(C(=O)OC)c(NS(=O)(=O)c2cc(Cl)ccc2Cl)c1 | -10.3 |

| SMILES | displacement [%] |
| --- | --- |
| CN(C)c1ccc(NC(=O)/C=C/c2ccccc2Cl)cc1 | 3.2 |
| Cc1ccc(-c2nc3cc(NCc4ccc5c(c4)OCO5)ccc3o2)cc1 | -6.3 |
| Clc1ccc(/C=N/N=C(c2ccccc2)c2ccccc2)s1 | 3.6 |
| Cc1ccc(C(=O)c2coc3c2C(=O)c2ccccc2C3=O)cc1 | -9.6 |
| N#Cc1ccc(-c2cc(C(=O)O)c3c(ccc4ccccc43)n2)cc1 | -1.7 |
| COc1ccc(C(=O)/C=C/c2ccc3c(c2)OCO3)cc1OC | 2.1 |
| CCOC(=O)c1c(N)sc(C(=O)NC2CCCCC2)c1C | 5.3 |
| Cc1ccc(O)c(Nc2c([N+](=O)[O-])c(=O)oc3ccccc23)c1 | 12.4 |
| CC1CCN(C(=O)CSCc2cccc(Br)c2)CC1 | -0.7 |
| Cc1ccc(OCC(=O)N2CCCc3ccccc32)c(C)c1 | 6 |
| CCOc1ccc(C(=O)Nc2cc(-c3nc4ccc(C)cc4o3)ccc2Cl)cc1[N+](=O)[O-] | 2.3 |
| COC(=O)c1c(-c2ccc(F)cc2)csc1NC(=O)CCC(=O)O | 13.5 |
| CCCOc1cccc(C(=O)Nc2cccc(C(=O)Nc3ccccc3C(=O)O)c2)c1 | 10.7 |
| Fc1ccc(NC(=S)NCc2cccnc2)cc1 | -6.5 |
| Cc1nn(C(=O)CCN2C(=O)c3ccccc3C2=O)c(C)c1Br | -3.9 |
| COc1ccccc1/C=C/C=N/NC(=O)c1cc(-c2ccc(C)cc2)n[nH]1 | -11.4 |
| CCc1c(C)c2cc([N+](=O)[O-])c(O)c(C)c2oc1=O | -6 |
| COc1ccc(OC)c(/C=C2\NC(=S)N(c3ccccc3)C2=O)c1 | 62.3 |
| O=C1OC(c2ccccc2)=N/C1=C/c1ccc(-c2cccc([N+](=O)[O-])c2)o1 | -4.6 |
| COc1cccc(/C=C2\C(=O)NN(c3ccccc3)C2=O)c1OC | -9.4 |
| O=C(N=Nc1c(O)[nH]c2ccc([N+](=O)[O-])cc12)c1ccc2c(c1)OCO2 | 75.1 |
| CC1CCc2c(sc(NC(=O)c3ccccc3Cl)c2C(=O)N2CCCCCC2)C1 (stereo not drawn) | -7.1 |
